Results: PubChem BioAssay AID1159614 (National Center for Advancing Translational Sciences (NCATS), 2016)
About 65 (0.1%) of roughly 45,000 compounds were called active. Calls come from the whole dose curve; as a rule, active = well fitted activation curve with a large enough effect; inconclusive = small, poorly fitted or top-dose-only effect; inactive = no such curve, though single readings can be large or run the other way. The list shows a part of the results.

biological target: Galactocerebrosidase (Homo sapiens) (UniProt P54803); test: A Novel Cell-Based Assay to Identify Small Molecules for B -Galactocerebrosidase; settings: 145M-Twi-hGALC-G270D cells (Twitcher mouse brain line with human GALC G270D), HMU-beta-Gal fluorescence, 48 h; series mostly up to 57.5 µM; activation: at the top concentration; note: nearly all actives have a fitted effect of over 65% in size; for activation: 0% is about no effect
UniProt P54803, sequence (P54803 whole entry, looked up): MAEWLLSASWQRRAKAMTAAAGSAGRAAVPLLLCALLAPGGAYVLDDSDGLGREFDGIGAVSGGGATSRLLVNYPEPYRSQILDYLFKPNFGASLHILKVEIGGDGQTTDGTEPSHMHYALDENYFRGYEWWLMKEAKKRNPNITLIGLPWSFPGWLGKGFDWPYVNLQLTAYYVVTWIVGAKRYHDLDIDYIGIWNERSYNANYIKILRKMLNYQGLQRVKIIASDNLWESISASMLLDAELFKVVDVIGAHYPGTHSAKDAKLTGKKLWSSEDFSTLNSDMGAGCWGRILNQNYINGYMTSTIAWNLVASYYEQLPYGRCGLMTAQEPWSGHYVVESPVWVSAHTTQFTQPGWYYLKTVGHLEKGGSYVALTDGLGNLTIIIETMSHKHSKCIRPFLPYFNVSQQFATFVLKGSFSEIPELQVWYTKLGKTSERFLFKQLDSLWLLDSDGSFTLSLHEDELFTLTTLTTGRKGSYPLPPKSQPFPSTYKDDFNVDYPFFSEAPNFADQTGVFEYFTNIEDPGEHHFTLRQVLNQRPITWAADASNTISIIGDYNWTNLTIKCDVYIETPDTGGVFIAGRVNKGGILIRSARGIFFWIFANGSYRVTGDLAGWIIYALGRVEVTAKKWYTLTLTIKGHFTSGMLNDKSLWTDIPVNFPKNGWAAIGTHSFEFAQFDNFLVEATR
Procedure, shortened: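 Fluorogenic HMU-b-Gal hydrolysis (0.1 mM final, pH 5.2 citrate-phosphate with 1 mg/mL sodium taurocholate; carbonate stop buffer) measures mutant GALC activity after compound treatment of live 145M-Twi Twitcher brain cells stably carrying human GALC-G270D, with wild-type GALC line alongside; activation sought.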
Potency is the fitted concentration of half-maximal effect.

Compound | activation | Potency
CCOc1ccc(N(C(C)C(=O)NCCSc2ccc(C)cc2)S(C)(=O)=O)cc1 (centres undefined) | inactive: -16.6% | 
CCCCn1cc(S(=O)(=O)c2ccc(CC)cc2)c(=O)c2cc(F)c(N3CCOCC3)cc21 | inactive: -18.7% | 
Cc1cc(C)cc(NC(=O)C(=O)NCC(c2cccnc2)N2CCN(c3ccccc3)CC2)c1 (centres undefined) | inactive: -11.5% | 
COc1ccc(-n2ccn(Cc3ccccc3C)c(=O)c2=O)cc1 | inactive: -15% | 
Cc1ccc(OCC(=O)Nc2ccc3[nH]c(=O)sc3c2)cc1 | inactive: -6.4% | 
CCc1cc2c(cc3c(=O)n(CC(=O)NC4CCCCC4)ncn32)s1 | inactive: -3.87% | 
Cc1nn(-c2ccccc2)c2c1N(CCCC(=O)NCc1ccccc1)C(=O)CS2 | inactive: -8.33% | 
O=C1CN(C(=O)Nc2ccccc2Cl)C(c2ccccc2)c2c(sc3c2CCCC3)N1 (centres undefined) | inactive: -9.19% | 
COc1ccc(NC(=O)C(C)Sc2cc(-c3ccccc3)nc(C)n2)cc1Cl (centres undefined) | inactive: -9.38% | 
COc1ccc(-c2cc(C(=O)NCCc3ccc(OC)c(OC)c3)c3ccccc3n2)cc1 | inactive: -20.9% | 
CCCc1cc(=O)oc2cc(C)c3c(C(C)(C)C)coc3c12 | inactive: -22.7% | 
COc1cccc(NC(=O)c2ccc3[nH]c(C)cc(=O)c3c2)c1 | inactive: -15.3% | 
O=C(CCn1c(=O)c2cccn2c2cccnc21)NCc1ccccc1F | inactive: 4.14% | 
O=C(COc1ccc(F)cc1)Nc1ccccc1OCc1cc(=O)n2ccccc2n1 | inactive: -5.59% | 
CCc1nn2c(=O)cc(COC(=O)c3ccc(NC(=O)C4CCCCC4)cc3)nc2s1 | inactive: -18.8% | 
CCC1CCc2nc3sc(C(=O)Nc4cccc(C(F)(F)F)c4)c(N)c3cc2C1 (centres undefined) |  | active: 10 µM
COc1ccc(-c2noc(-c3ccc(NC4CCCCC4)c([N+](=O)[O-])c3)n2)cc1 | inactive: -11.6% | 
NC(=O)c1ccccc1O | inactive: -18% | 
COC(=O)c1ccc(Cn2nc(-c3ccc(C)cc3)ccc2=O)cc1 | inactive: -2.48% | 
COc1ccc(N(CC(=O)Nc2cc(Cl)ccc2C)S(=O)(=O)c2c(C)noc2C)cc1 | inactive: -5.88% | 
CCOc1ccc(NS(=O)(=O)c2ccc3[nH]cc(C(=O)N4CCCCCC4)c(=O)c3c2)cc1 | inactive: -14.6% | 
COc1cccc(CNS(=O)(=O)c2ccc(-c3cc(C(F)(F)F)on3)s2)c1 | inactive: -8.99% | 
O=C(c1ccc2c(c1)OCCO2)N(Cc1cccnc1)c1nc2c(F)cc(F)cc2s1 | inactive: -37% | 
CCOC(=O)c1ccc(N2C(=O)Cc3cc(OCC)c(OCC)cc3C2c2ccccc2)cc1 (centres undefined) | inactive: -18.6% | 
CCOc1ccc(C(=O)Nc2ccc3oc(-c4ccc(Br)cc4)nc3c2)cc1 | inactive: -11.4% | 

Compound | activation | Potency
COc1cccc(CN2C(=O)C3(SCC(=O)N3c3ccc(C(C)C)cc3)c3ccccc32)c1 (centres undefined) | inactive: -41.3% | 
CCc1cccc(NC(=O)c2oc3ccc4c(c3c2C)C(=O)CC(C)(C)O4)c1 | inactive: -10.7% | 
NC(=O)CSc1nnnn1-c1cccc(O)c1 | inactive: 5.85% | 
Cn1c(SCc2ccccc2Cl)nc2c([nH]c3ccccc32)c1=O | inactive: -7.02% | 
COCCNC(=O)c1ccc2c(=O)n(CCOC)c(SCC(=O)c3c[nH]c4ccccc34)nc2c1 | inactive: -3.66% | 
COc1ccc(N2CCN(C(=O)c3sc4nc5n(c(=O)c4c3C)CCC5)CC2)cc1 | inactive: -25.1% | 
Cc1cccc(CCNC(=O)CCc2c(C)nc3ncnn3c2C)c1 | inactive: -11.5% | 
Cc1ccccc1-c1nc(SCC(=O)NCC2CCCO2)c2c(=O)n(C)c(=O)n(C)c2n1 (centres undefined) | inactive: 10.5% | 
COc1ccc(Cc2nc3ccc(C(=O)NCCCN4CCN(C)CC4)cc3o2)cc1 | inactive: -12% | 
NC(=O)N[C@@H](CCC(=O)O)C(=O)O | inactive: -8.94% | 
Cc1ccc(OCCSc2nc3ccccc3n2CC(=O)N2CCCCC2)c(C)c1 | inactive: 3.62% | 
O=C(Cn1c(=O)n(Cc2ccc(F)cc2)c(=O)c2sc3ccccc3c21)NCc1ccccc1 | inactive: -8.25% | 
O=C(Nc1cccc(-c2nc3cc(Cl)ccc3o2)c1)c1ccc(F)cc1 | inactive: 8.23% | 
O=C(CCn1cnc2onc(-c3ccc(F)cc3)c2c1=O)N1CCN(c2ccccc2)CC1 | inactive: -12.7% | 
COc1cccc(OCc2nc3ccccc3n2C)c1 | inactive: -11.6% | 
O=C(NCc1noc2ccccc12)N1CCN(c2ccccc2F)CC1 | inactive: -9.31% | 
O=C(CSC1=Nc2ccccc2C2=NC(Cc3ccccc3)C(=O)N12)Nc1ccccc1 (centres undefined) | inactive: -9.63% | 
COc1ccc(-c2nc3sc(CCNC(=O)C(=O)Nc4ccc(C)cc4C)c(C)n3n2)cc1 | inactive: -9.39% | 
Cc1ccc(NC(=O)C2CCC(CNS(=O)(=O)c3cccc4nsnc34)CC2)c(C)c1 (centres undefined) | inactive: -20.9% | 
O=C(Cn1c(=O)oc2cc(S(=O)(=O)N3CCCC3)ccc21)Nc1ccc(OC(F)(F)F)cc1 | inactive: -21.4% | 
Cc1nc2ccc(S(=O)(=O)N(CC(=O)Nc3cccc(C)c3C)Cc3ccccc3)cc2s1 | inactive: -3.6% | 
Cc1ccc(C)c(Cn2c(C(C)NC(=O)c3ccccc3)nc3ccccc32)c1 (centres undefined) | inactive: 2.16% | 
COc1ccc(-c2ccc(NS(=O)(=O)c3ccccc3Cl)cc2)nn1 | inactive: -6.24% | 
Cc1nc(N2CCOCC2)c2c(C(=O)N3CCN(c4ccc(Cl)cc4)CC3)c(C)oc2n1 | inactive: -6.55% | 
